{
  "source": "PubChem BioAssay AID686979",
  "about": "(National Center for Advancing Translational Sciences (NCATS), 2013)",
  "note": "Out of some 420,000 compounds screened, about 50,000 (12%) were called active. This list was built around the results that the source calls inconclusive (neither active nor inactive); the mix of calls is not that of the screen. Calls come from the whole dose curve; as a rule, active = well fitted inhibition curve with a large enough effect; inconclusive = small, poorly fitted or top-dose-only effect; inactive = flat fitted curve, though single readings scatter. No potency is given beside an inconclusive call; the fits are too rough. % is set by controls: 0 for no effect and ±100 for the full control effect; potency is the fitted concentration of half-maximal effect; tags give direction and shape of the fitted curve.",
  "data": [
    {"assay": "qHTS for Inhibitors of human tyrosyl-DNA phosphodiesterase 1 (TDP1): qHTS in cells in presence of CPT; note: nearly all actives have a fitted effect of over 55% in size", "conditions": "chicken DT40 Tdp1-/-;hTDP1 cells + 20 nM CPT, ATP luminescence, 48 h; activity change, negative = growth inhibition: at 46.2 µM (top of the series) unless noted", "outline": "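Chicken DT40 Tdp1-/- cells stably complemented with human TDP1 were seeded at 400 cells/well in medium containing 20 nM camptothecin, exposed to pin-transferred compounds, and grown at 37 °C for at least 48 hr. Viability was read as ATP luminescence.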", "values": [
      {"smiles": "CCOC(=O)c1c(NC(=O)c2ccco2)n(C2CCCCC2)c2nc3ccccc3nc12", "Potency": "active: 7.31 µM"},
      {"smiles": "CN(CC(=O)Nc1ccc(F)cc1)C(=O)c1ccc(-c2ccc(Cl)cc2)o1", "Potency": "inconclusive [inhibitor, single point]"},
      {"smiles": "CC(=O)c1c(C)[nH]c(C(=O)CSc2nnc(-c3ccccc3)n2Cc2ccc3c(c2)OCO3)c1C", "Potency": "inconclusive [inhibitor, single point]"},
      {"smiles": "NNC(=O)[C@H](Cc1ccccc1)NC(=O)NCCc1ccccc1", "Potency": "inactive"},
      {"smiles": "Cc1ccccc1C=Nc1ccccc1C(N)=O", "Potency": "active: 5.17 µM"},
      {"smiles": "COc1ccc(/C=N/NS(=O)(=O)c2ccccc2)cc1OS(=O)(=O)c1ccc(C)cc1", "Potency": "inconclusive [inhibitor, single point]"},
      {"smiles": "O=C(Cc1csc(-c2cccc(F)c2)n1)Nc1cccc(S(=O)(=O)NC2=NCCC2)c1", "Potency": "inactive"},
      {"smiles": "CCC(Oc1ccccc1)C(=O)Nc1ccc(OCc2cc(=O)n3ccc(C)cc3n2)cc1", "note": "(centres undefined)", "Potency": "inconclusive [inhibitor, single point]"},
      {"smiles": "Cc1oc(-c2ccccc2F)nc1CSCC(=O)NCCc1ccccc1", "Potency": "active: 13 µM"},
      {"smiles": "Fc1ccc(-c2cc(-c3ccccc3)nc(-n3cccn3)n2)cc1", "Potency": "inconclusive [inhibitor, single point]"},
      {"smiles": "N=c1c2c(-c3ccccc3)c(-c3ccccc3)oc2ncn1CCN1CCOCC1", "Potency": "inconclusive [inhibitor, single point]"},
      {"smiles": "COC(=O)C1=C(C)N(CC2CC2)C(=NCc2cc(OC)c(OC)c(OC)c2)N[C@H]1c1ccccc1", "Potency": "inconclusive [inhibitor, single point]"},
      {"smiles": "O=C(OCC(=O)N1CCCC1)c1cc(Cl)ccc1Cl", "Potency": "inactive"},
      {"smiles": "CSc1ncnc2c1cnn2-c1ccc(C)cc1C", "Potency": "inactive"},
      {"smiles": "CCC(CC)C(=O)N1CCCC(c2nc(-c3cccs3)no2)C1", "note": "(centres undefined)", "Potency": "inconclusive [inhibitor, single point]"},
      {"smiles": "CCC(=O)N(C)C[C@@H]1Oc2ncc(Br)cc2C(=O)N([C@H](C)CO)C[C@H]1C", "Potency": "inactive"},
      {"smiles": "O=S(=O)(NCCc1nnc2ccc(SCc3c(F)cccc3Cl)nn12)c1ccccc1", "Potency": "inconclusive [inhibitor, single point]"},
      {"smiles": "CCOc1ccc(NC(=S)NC(=O)/C=C/c2ccc(OC)c(OC)c2)c([N+](=O)[O-])c1", "Potency": "inconclusive [inhibitor, single point]"},
      {"smiles": "Cc1cccc(C)c1NC(=S)Nc1ccc(F)cc1", "Potency": "inactive"},
      {"smiles": "COCCn1c(C)cc(C2=NNC(=Nc3ccccc3F)SC2)c1C", "Potency": "inconclusive [inhibitor, partial curve]"},
      {"smiles": "CC(=O)N1N=C(c2ccc(C(C)(C)C)cc2)OC1(C)C", "Potency": "active: 14.6 µM"},
      {"smiles": "Cc1cc(/C=C2/NC(=O)N(Cc3ccccc3F)C2=O)c(C)n1C(C)C", "Potency": "inconclusive [inhibitor, single point]"},
      {"smiles": "CCc1nc2c(OCC(=O)c3ccc(F)cc3)cccn2c1N(C)C(=O)c1cccs1", "Potency": "inconclusive [inhibitor, single point]"},
      {"smiles": "O=C(COc1ccc(Cl)cc1)NCc1nnc(SCC(=O)Nc2ccc(F)cc2F)o1", "Potency": "active: 13 µM"},
      {"smiles": "Cc1cccc(C)c1N=C1C(=O)Nc2ccccc21", "Potency": "inconclusive [inhibitor, partial curve]"},
      {"smiles": "COc1ccc(NC(=S)NCc2ccc3c(c2)OCO3)cc1", "Potency": "inactive"},
      {"smiles": "COc1ccc(-c2c(-c3ccc(OC)c(F)c3)c3ccccc3n2C)cc1", "Potency": "inactive"},
      {"smiles": "O=Cc1cc2ccccc2cc1O", "Potency": "inconclusive [inhibitor, single point]"},
      {"smiles": "CCN(CC)CCOCCOc1ccc(Cl)c2ccccc12", "Potency": "inconclusive [inhibitor, single point]"},
      {"smiles": "FC(F)(F)c1ccc2c(c1)C1C=CCC1C(c1ccncc1)N2", "note": "(centres undefined)", "Potency": "inconclusive [inhibitor, single point]"},
      {"smiles": "CCC(C)n1c(SCC(=O)NC2CC2)nc2ccccc2c1=O", "note": "(centres undefined)", "Potency": "inconclusive [inhibitor, single point]"},
      {"smiles": "O=C(Cc1ccc(Cl)cc1Cl)OCC(=O)N1CCN(C(=O)c2ccco2)CC1", "Potency": "inactive"},
      {"smiles": "Nc1nc(SC2c3cccc4cccc(c34)C2NS(=O)(=O)c2ccccc2)n[nH]1", "note": "(centres undefined)", "Potency": "inactive"},
      {"smiles": "Cc1ccc(/C=N/NC(=O)c2ccncc2)cc1", "Potency": "inactive"},
      {"smiles": "O=C(CCNC(=O)N1CC(=O)Nc2ccccc21)NCc1ccccc1Cl", "Potency": "inconclusive [inhibitor, single point]"},
      {"smiles": "CC(C)CCNC(=O)c1cc(Sc2ccc(F)cc2F)nc2ccccc12", "Potency": "inconclusive [inhibitor, single point]"},
      {"smiles": "COc1ccccc1N1CCN(C(=O)c2ccc([N+](=O)[O-])s2)CC1", "Potency": "inconclusive [inhibitor, single point]"},
      {"smiles": "Cc1ccc(N(C(=O)c2csnn2)C(C(=O)NC2CCCC2)c2ccncc2)c(C)c1", "note": "(centres undefined)", "Potency": "inactive"},
      {"smiles": "CCNc1ccccc(C(=O)/C=C/c2ccc3c(c2)OCO3)c1=O", "Potency": "active: 8.2 µM"},
      {"smiles": "O=C(CCN1C(=O)/C(=C/c2ccccc2F)SC1=S)NCCCN1CCOCC1", "Potency": "inconclusive [inhibitor, single point]"},
      {"smiles": "O=C(Cc1cccc(C(F)(F)F)c1)NCC(=O)Nc1cc(Cl)ccc1Cl", "activity change, negative = growth inhibition": "inconclusive: -30.5% [inhibitor]"},
      {"smiles": "Cc1ccccc1NC(=S)NCc1ccc(Cl)cc1", "Potency": "inconclusive [inhibitor, single point]"},
      {"smiles": "COc1cc(/C=C(\\CC(=O)O)c2nc3ccccc3s2)ccc1OCC(=O)Nc1ccccc1F", "Potency": "inactive"},
      {"smiles": "CS/C(=N\\S(=O)(=O)c1ccc(Cl)cc1)c1ccccc1", "Potency": "inactive"},
      {"smiles": "CC1(Cc2ccccc2C#N)C(=O)Nc2ccc(OC(F)(F)F)cc21", "note": "(centres undefined)", "Potency": "inactive"},
      {"smiles": "COc1cc(OC)cc(C(=O)NCC2CCCN(Cc3ccc(SC)cc3)C2)c1", "note": "(centres undefined)", "Potency": "inconclusive [inhibitor, partial curve]"},
      {"smiles": "CCCNC(=O)c1ccc(N2CCC3(CC2)CC(c2cccc(Br)c2)=NO3)c([N+](=O)[O-])c1", "Potency": "active: 6.51 µM"},
      {"smiles": "Cc1cccc(NC(=O)/C(=C\\c2ccco2)NC(=O)c2ccccc2)c1", "Potency": "inactive"},
      {"smiles": "CCCCn1cc(S(=O)(=O)c2ccccc2)c(=O)c2cc(F)c(N3CCC(C)CC3)cc21", "Potency": "inconclusive [inhibitor, single point]"},
      {"smiles": "CN(C)CCN1CCN(C2CN(Cc3cn(Cc4ccccc4C(F)(F)F)nn3)S(=O)(=O)C2)CC1", "note": "(centres undefined)", "Potency": "inactive"},
      {"smiles": "Cc1ccc2c(c1)c1ncnc(N3CCc4ccccc4C3)c1n2C", "Potency": "inconclusive [inhibitor, single point]"},
      {"smiles": "Cc1ccccc1C(=O)NC(C(=O)Nc1nc2c(s1)CCCC2)C(C)C", "note": "(centres undefined)", "Potency": "active: 25.9 µM"},
      {"smiles": "Cn1cccc1C(=O)N1CCC[C@@]2(CCN(Cc3cc(C(F)(F)F)cc(C(F)(F)F)c3)C2)C1", "Potency": "inconclusive [inhibitor, single point]"},
      {"smiles": "COc1ccccc1CNC(=O)COC(=O)CSc1ccc(C)c(C)c1", "Potency": "inactive"},
      {"smiles": "COc1ccccc1N1CCN(C[C@@H]2CN3C(=O)N(C)c4ccccc4C3=N2)CC1", "Potency": "inconclusive [inhibitor, single point]"},
      {"smiles": "CNc1nc(Nc2ccc(C(C)=O)cc2)nc(OC(C(F)(F)F)C(F)(F)F)n1", "Potency": "inconclusive [inhibitor, single point]"},
      {"smiles": "CC(C)Cc1nc(NCCN2CCOCC2)c(C#N)c2c1COC(C)(C)C2", "Potency": "inconclusive [inhibitor, single point]"},
      {"smiles": "O=C1c2cccc3c([N+](=O)[O-])ccc(c23)C(=O)N1c1nccs1", "Potency": "active: 3.26 µM"},
      {"smiles": "O=c1c2ccccc2nc(SCc2nnc(-c3ccccc3Br)o2)n1Cc1ccco1", "Potency": "inconclusive [inhibitor, single point]"},
      {"smiles": "Cc1cc(C)c(S(=O)(=O)Nc2ccc(N(C)C)cc2)c(C)c1-n1cnnn1", "Potency": "active: 29.1 µM"},
      {"smiles": "O=C(Nc1cccc(C(=O)N2CCCC2)c1)C1CC1", "Potency": "inactive"},
      {"smiles": "O=C(CN1CCN(CC(=O)Nc2ccccc2F)CC1)Nc1ccc(Cl)c(C(F)(F)F)c1", "Potency": "active: 7.31 µM"},
      {"smiles": "CCCOc1ccccc1-c1nc2n[nH]nc2c(=O)[nH]1", "Potency": "inactive"},
      {"smiles": "Fc1ccccc1C1c2cccn2CCN1C(=S)Nc1ccc(Br)cc1", "note": "(centres undefined)", "Potency": "active: 20.6 µM"},
      {"smiles": "Cc1c(C(=O)NCc2cccs2)oc2ccc(S(=O)(=O)N3CCOCC3)cc12", "Potency": "inactive"},
      {"smiles": "COc1cccc(C(=O)NCC(c2ccc3c(c2)OCO3)N2CCN(c3ccc(F)cc3)CC2)c1", "note": "(centres undefined)", "Potency": "active: 14.6 µM"},
      {"smiles": "CC(=O)n1cc([C@H]2C=C(C(=O)N3CCN(Cc4ccccc4)CC3)O[C@@H](OCc3ccc(CO)cc3)C2)c2ccccc21", "Potency": "active: 7.31 µM"},
      {"smiles": "CCOC(=O)c1cnc(Nc2ccc(OCC)cc2)nc1C", "Potency": "inactive"},
      {"smiles": "Cc1onc(-c2ccccc2Cl)c1C(=O)NNC(=O)c1nn(C)cc1Cl", "Potency": "inactive"},
      {"smiles": "Cn1nccc1C(=O)N(CCN1CCCCC1)CC1CCCN(C2CCCC2)C1", "note": "(centres undefined)", "Potency": "inactive"},
      {"smiles": "CCOc1ccc(CNC(=O)CCc2cn(CC)c3ccccc23)cc1", "Potency": "inconclusive [inhibitor, single point]"},
      {"smiles": "CC1=C(c2ccc(C)c(C)c2)S(=O)(=O)N=C1N1CCC(C(=O)N2CCCCC2)CC1", "Potency": "inconclusive [inhibitor, single point]"},
      {"smiles": "Cc1ccc(-c2nc(CN3CCN(C(=O)C4CCCO4)CC3)cs2)cc1", "note": "(centres undefined)", "Potency": "inconclusive [inhibitor, single point]"},
      {"smiles": "Cc1c(C(=O)NCc2ccc3c(c2)OCO3)sc2nc(-c3ccc(F)cc3)cn12", "Potency": "inconclusive [inhibitor, partial curve]"}
    ]}
  ]
}
